Data: PubChem BioAssay (Tox21)
“And” between values parts separate entries of the source, which are not always exact repeats. Equal entries are not always repeated. The shares of active, inactive and inconclusive entries below differ from those in the screen. For some of these results: Where the call is inconclusive, the potency comes from a doubtful curve fit. The source made the active and inactive calls. Unless noted, the call rests on the fitted dose curve; in most records, active means well fitted curve in the direction sought with a large enough effect in the repeat runs; inconclusive means weak or mixed curves; inactive means no such curve, though single readings can be large; an effect the other way counts as inactive or inconclusive.

Experiments:
[1] = qHTS RealTime-Glo MT Cell Viability Assay in HepG2 cells - 16 hour (AID 1224885); further: nearly all actives have a fitted effect of over 50% in size
How it was run: (§1)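 HepG2 cells were seeded at 600 cells/well together with NanoLuc luciferase and a cell-permeant prosubstrate, preincubated 5 h at 37 C/5% CO2, then pin-dosed with compounds in DMSO. Nonlytic luminescence from viable cells was read at each time point.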

[2] = A CellTox Green Cytotoxicity Assay to monitor cytotoxicity in HepG2 cells - 8 hour (AID 1224890); further: nearly all actives have a fitted effect of over 45% in size
How it was run: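 HepG2 cells, 600/well, preincubated 5 h with CellTox Green dye, then exposed to Tox21 compounds in DMSO at 37 C for up to 40 h. Dead-cell DNA fluorescence read at the indicated time point.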

[3] = qHTS assay to identify small molecule antagonists of the sonic hedgehog signaling (Shh) pathway (AID 1259369; calls by dose curve; further: nearly all actives have a fitted effect of over 45% in size)
How it was run: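 NIH/3T3-derived Gli1-Luc reporter cells plated 4 h, dosed with compound, then stimulated with conditioned medium for 24 h at 37 C. Firefly luciferase luminescence read after 30 min with detection reagent at room temperature.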

[4] = qHTS RealTime-Glo MT Cell Viability Assay in HEK293 cells - 24 hour (AID 1224886); further: nearly all actives have a fitted effect of over 50% in size
How it was run: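 HEK293 cells were seeded at 600 cells/well together with NanoLuc luciferase and cell-permeant prosubstrate, preincubated 5 h at 37 C/5% CO2, then given compound in DMSO by pintool. Luminescence from viable-cell prosubstrate reduction was read repeatedly over 40 h.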

[5] = qHTS RealTime-Glo MT Cell Viability Assay in HepG2 cells - 0 hour (AID 1224889); further: nearly all actives have a fitted effect of over 50% in size
How it was run: as §1

[6] = molecular target: Androgen receptor (Homo sapiens) (UniProt P10275); experiment: qHTS assay to identify small molecule antagonists of the androgen receptor (AR) signaling pathway using the MDA cell line in the presence of 0.5 nM R1881 (AID 1259243); further: nearly all actives have a fitted effect of over 50% in size
How it was run: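 MDA-kb2 cells (MMTV-luciferase, responsive to AR and GR) at 3,000/well, rested 5 h at 37C, 0% CO2, then given compounds plus 0.5 nM R1881 (final) for 16 hr. Luciferase read with ONE-Glo after 30 min at room temperature.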

[7] = molecular target: Estrogen receptor beta (Homo sapiens) (UniProt Q92731); experiment: qHTS assay to identify small molecule antagonists of the estrogen receptor beta (ER-beta) signaling pathway (AID 1259378; active means well fitted inhibition curve with a large enough effect in the signal ratio in the repeat runs, not every such curve was filed as active; inconclusive means weak or mixed curves, or effect the other way; inactive means no such curve, though single readings can be large or run the other way; the % refers to the signal ratio; on activity, negative = inhibition: on the % scale 0 is the no-effect control and ±100 the full control effect); conditions: ER-beta-UAS-bla HEK293T, beta-lactamase FRET ratio, 16 h; activity, negative = inhibition: at 92.4 µM (top of the series) unless noted
How it was run: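 ER-beta-UAS-bla HEK293T (GripTite) cells in 2% charcoal-stripped FBS medium were preincubated 6 hr at 37C, dosed with compound, then stimulated with 1 nM E2 (final) for 16 hr; beta-lactamase reporter read by B/G FRET fluorescence after 2 hr substrate loading.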

[8] = qHTS assay to identify small molecule HDAC inhibitors - cell viability counter screen (AID 1259365); further: nearly all actives have a fitted effect of over 50% in size
How it was run: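 To flag cytotoxic hits, 1,500 wild-type HCT-116 cells per well, plated the day before, receive test compounds for 2hr at 37 C before CellTiter-Glo reagent and a luminescence read.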

[9] = qHTS RealTime-Glo MT Cell Viability Assay in HEK293 cells - 8 hour (AID 1224887); further: nearly all actives have a fitted effect of over 50% in size
How it was run: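 600 cells/well were plated with the nonlytic NanoLuc/prosubstrate reagent, pre-incubated 5 h, then given 23 nL of compound in DMSO. Incubation at 37 C for 40 h, with luminescence from viable-cell-reduced substrate read repeatedly from 0 h.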

[10] = A CellTox Green Cytotoxicity Assay to monitor cytotoxicity in HEK293 cells - 16 hour (AID 1224888); further: nearly all actives have a fitted effect of over 35% in size
How it was run: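 HEK293 cells, 600/well, were preincubated 5 hours and then exposed to compounds at 37 C for up to 40 hours. A cell-impermeant cyanine dye staining dead-cell DNA was read by fluorescence at 0, 8, 16, 24, 32 and 40 h time points.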

[11] = qHTS assay to identify small molecule antagonists of the estrogen receptor alpha (ER-alpha) signaling pathway using the BG1 cell line in the presence of 0.1 nM 17-beta-estradiol - cell viability counter screen (AID 1259241); further: nearly all actives have a fitted effect of over 40% in size
How it was run: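 CellTiter-Fluor read (30 min, 37C) on ER-alpha/ERE-luc VM7Luc4E2 cells; 22 hr compound treatment; agonist 0.1 nM E2 final; same-well multiplex.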

[12] = qHTS assay to identify small molecule antagonists of the androgen receptor (AR) signaling pathway using the MDA cell line in the presence of 0.5 nM R1881 - cell viability counter screen (AID 1259242); further: nearly all actives have a fitted effect of over 45% in size
How it was run: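 MDA-kb2 cells (MMTV-luciferase, AR/GR responsive) were treated with compounds plus 0.5 nM R1881 (final) for 16 hr at 37C, 0% CO2. Viability was then read in the same wells as live-cell protease fluorescence (CellTiter-Fluor, 30 min).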

[13] = qHTS assay to identify small molecule agonists of the sonic hedgehog signaling (Shh) pathway - cell viability counter screen (AID 1259366); further: nearly all actives have a fitted effect of over 50% in size
How it was run: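 Fluorescence from CellTiter-Fluor reports live cells in this counter screen. NIH/3T3-derived Gli1-Luc reporter cells receive test compounds for 24hr at 37C; reagent goes in at 23hr.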

[14] = qHTS assay to identify small molecule antagonists of the sonic hedgehog signaling (Shh) pathway - cell viability counter screen (AID 1259367); further: nearly all actives have a fitted effect of over 55% in size
How it was run: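 NIH/3T3-derived Gli1-Luc reporter cells (2,000 per well) rested 4 hr at 37 C, then received DMSO compounds plus conditioned medium. After 23 hr of treatment, CellTiter-Fluor was added for 1 hr at 37C and fluorescence read.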

[15] = qHTS assay to identify small molecule agonists of the androgen receptor (AR) signaling pathway in the presence of an antagonist - cell viability counter screen (AID 1259379); further: nearly all actives have a fitted effect of over 25% in size
How it was run: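 MDA-kb2 cells (MMTV-luciferase, AR/GR), 3,000/well, 5 h attachment, then 3.0 µM nilutamide (final) and compounds at 15 concentrations. Viability by CellTiter-Fluor fluorescence after 16 h at 37 °C, 0% CO2, in the reporter wells.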

[16] = molecular target: Estrogen receptor (Homo sapiens) (UniProt P03372); experiment: qHTS assay to identify small molecule antagonists of the estrogen receptor alpha (ER-alpha) signaling pathway using the BG1 cell line in the presence of 0.1 nM 17-beta-estradiol (AID 1259244); further: nearly all actives have a fitted effect of over 50% in size
How it was run: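 VM7Luc4E2 cells (endogenous full-length ER-alpha, 4×ERE-luciferase), kept 5 days in phenol red-free, charcoal-stripped FBS medium; 4,000 cells/well. Compounds added with 0.1 nM (final) 17beta-estradiol, 22 hr at 37C; luminescence read with ONE-Glo after 30 min.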

[17] = molecular target: Estrogen receptor beta (Homo sapiens) (UniProt Q92731); experiment: qHTS assay to identify small molecule agonists of the estrogen receptor beta (ER-beta) signaling pathway (AID 1259377; active means well fitted activation curve with a large enough effect in the signal ratio in the repeat runs, not every such curve was filed as active; inconclusive means weak or mixed curves, or effect the other way; the % refers to the signal ratio); conditions: ER-beta-UAS-bla HEK293T, beta-lactamase FRET ratio, 16 h; activation: at 92.4 µM (top of the series) unless noted
How it was run: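 Screening used GripTite ER-beta-UAS-bla cells held in 2% charcoal-stripped FBS medium. After overnight (16 hr) compound incubation at 37C, beta-lactamase activity was detected with a FRET substrate by fluorescence.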
Potency means the concentration at half of the fitted maximal effect; tags describe the fitted curve by direction and shape or compound fluorescence and quenching.

Sequence of UniProt Q92731 (Q92731 whole entry, looked up): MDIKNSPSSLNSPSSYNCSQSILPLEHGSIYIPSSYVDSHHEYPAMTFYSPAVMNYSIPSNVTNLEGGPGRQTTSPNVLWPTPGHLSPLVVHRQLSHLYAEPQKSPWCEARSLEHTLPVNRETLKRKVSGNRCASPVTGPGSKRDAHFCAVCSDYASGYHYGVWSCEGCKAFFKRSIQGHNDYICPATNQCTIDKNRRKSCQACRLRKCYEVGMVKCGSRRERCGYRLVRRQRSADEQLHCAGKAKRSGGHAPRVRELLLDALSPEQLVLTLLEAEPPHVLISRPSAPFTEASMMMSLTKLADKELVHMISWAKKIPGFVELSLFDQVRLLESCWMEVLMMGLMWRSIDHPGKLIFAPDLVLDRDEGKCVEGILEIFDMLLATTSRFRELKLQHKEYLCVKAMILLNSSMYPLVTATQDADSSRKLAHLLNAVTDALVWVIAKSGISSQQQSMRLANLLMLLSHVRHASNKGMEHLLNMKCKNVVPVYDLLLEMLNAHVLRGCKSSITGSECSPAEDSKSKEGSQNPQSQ
Sequence of UniProt P03372 (P03372 whole entry, looked up): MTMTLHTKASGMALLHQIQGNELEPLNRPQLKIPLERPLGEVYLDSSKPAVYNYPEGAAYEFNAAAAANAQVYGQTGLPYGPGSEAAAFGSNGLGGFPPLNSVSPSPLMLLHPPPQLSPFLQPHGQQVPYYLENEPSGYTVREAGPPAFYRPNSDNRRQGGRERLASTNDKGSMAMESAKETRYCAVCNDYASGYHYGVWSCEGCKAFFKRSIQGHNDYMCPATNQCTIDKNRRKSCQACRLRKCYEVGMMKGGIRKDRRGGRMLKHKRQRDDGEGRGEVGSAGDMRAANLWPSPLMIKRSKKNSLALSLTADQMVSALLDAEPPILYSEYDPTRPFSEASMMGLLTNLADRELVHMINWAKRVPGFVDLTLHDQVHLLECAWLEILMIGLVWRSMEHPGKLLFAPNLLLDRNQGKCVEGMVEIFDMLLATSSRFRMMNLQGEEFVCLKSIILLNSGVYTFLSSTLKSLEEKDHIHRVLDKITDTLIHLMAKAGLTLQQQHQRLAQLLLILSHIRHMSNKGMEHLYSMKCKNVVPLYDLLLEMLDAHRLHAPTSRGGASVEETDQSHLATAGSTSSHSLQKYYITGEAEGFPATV
Sequence of UniProt P10275 (P10275 whole entry, looked up): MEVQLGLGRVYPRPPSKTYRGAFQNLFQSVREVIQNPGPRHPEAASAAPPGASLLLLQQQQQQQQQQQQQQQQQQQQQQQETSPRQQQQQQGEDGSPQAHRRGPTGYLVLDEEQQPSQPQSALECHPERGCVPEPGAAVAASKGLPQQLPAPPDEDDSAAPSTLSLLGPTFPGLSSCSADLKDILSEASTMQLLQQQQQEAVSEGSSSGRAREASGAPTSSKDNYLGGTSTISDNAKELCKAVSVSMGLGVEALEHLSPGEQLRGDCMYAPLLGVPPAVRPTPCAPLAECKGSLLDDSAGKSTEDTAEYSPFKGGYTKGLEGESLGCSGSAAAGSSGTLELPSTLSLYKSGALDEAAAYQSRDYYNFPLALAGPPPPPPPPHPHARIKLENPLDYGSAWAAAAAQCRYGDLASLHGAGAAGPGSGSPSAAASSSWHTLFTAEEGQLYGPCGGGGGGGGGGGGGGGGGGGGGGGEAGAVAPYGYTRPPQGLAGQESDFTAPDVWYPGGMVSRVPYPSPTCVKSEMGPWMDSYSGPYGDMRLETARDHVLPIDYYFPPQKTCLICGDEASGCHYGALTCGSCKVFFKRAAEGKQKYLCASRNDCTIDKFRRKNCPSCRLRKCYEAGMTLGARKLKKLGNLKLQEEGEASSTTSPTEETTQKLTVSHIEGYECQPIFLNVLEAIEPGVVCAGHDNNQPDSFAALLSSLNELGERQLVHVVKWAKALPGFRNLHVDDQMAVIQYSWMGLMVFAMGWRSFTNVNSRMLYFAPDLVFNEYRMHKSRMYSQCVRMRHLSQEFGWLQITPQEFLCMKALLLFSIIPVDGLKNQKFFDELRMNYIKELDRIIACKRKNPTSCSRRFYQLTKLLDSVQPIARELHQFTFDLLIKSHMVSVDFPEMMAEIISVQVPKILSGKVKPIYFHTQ

In the case of ClC1=C(Cl)C2(Cl)C(CBr)CC1(Cl)C2(Cl)Cl (stereo unspecified), the Potency [1] is reported as inconclusive: 54.9 µM [cytotoxic, single point], the Potency [2] is reported as inconclusive: 54.9 µM [activator, single point] and the Potency [3] is reported as “inactive”.

For C=CCc1ccc(OC(=O)Cc2ccccc2)c(OC)c1, the Potency [4] was inconclusive: 2.45 µM [cytotoxic, single point].

With O=c1c(C2CC(c3ccc(-c4ccc(Br)cc4)cc3)Cc3ccccc32)c(O)sc2ccccc12 (stereo unspecified) the Potency [1] was inconclusive: 23.9 µM [cytotoxic, partial curve, poor fit], the Potency [5] was active: 6.74 µM and the Potency [6] was inconclusive: 26.6 µM [inhibitor, partial curve, poor fit]. The Potency [3] was inconclusive: 33.5 µM [inhibitor, single point] and the activity, negative = inhibition [7] was inconclusive: -35.9% [at 42.5 µM].

For CN1C(=O)[C@@H](NC(=O)c2cc3ccccc3[nH]2)N=C(c2ccccc2)c2ccccc21, the Potency [1] was inconclusive: 21.3 µM [cytotoxic, partial curve, poor fit] and the Potency [8] was “inactive”.

With CC1(C)[C@H](C(=O)O[C@H](C#N)c2cccc(Oc3ccccc3)c2)[C@@H]1/C=C(\Cl)C(F)(F)F the Potency [4] was inconclusive: 50.9 µM [cytotoxic, single point] and inconclusive: 38.9 µM [cytotoxic, partial curve] and the Potency [9] was inconclusive: 45.4 µM [cytotoxic, single point] and inconclusive: 30.9 µM [cytotoxic, partial curve].

For CCCOCC(=Nc1ccc(Cl)cc1C(F)(F)F)n1ccnc1, the Potency [1] was inconclusive: 43.6 µM [cytotoxic, partial curve], the Potency [10] was active: 54.9 µM and the Potency [2] was inconclusive: 54.9 µM [activator, single point]. For the same compound, the Potency [11] was inconclusive: 61.1 µM [cytotoxic, single point], the Potency [12] was inconclusive: 68.5 µM [cytotoxic, partial curve, poor fit] and the Potency [8] was inconclusive: 48.5 µM [cytotoxic, partial curve, poor fit]. The Potency [13] was inconclusive: 68.5 µM [cytotoxic, single point], the Potency [14] was active: 54.4 µM and the Potency [7] was active: 17.2 µM. For the same compound, the Potency [15] was inconclusive: 48.5 µM [cytotoxic, partial curve].

In the case of O=C1C=CC(=O)C=C1, the Potency [4] is reported as inconclusive: 24.7 µM [rising, partial curve].

For [O]=[Cr](=[O])([OH])[O][Cr](=[O])(=[O])[OH], the Potency [1] was inconclusive: 39.3 µM [cytotoxic, partial curve] and inconclusive: 21.8 µM [cytotoxic, partial curve], the Potency [16] was inconclusive: 30.9 µM [inhibitor, partial curve] and inconclusive: 61 µM [inhibitor, single point] and the Potency [8] was inconclusive: 21.9 µM [cytotoxic, partial curve, poor fit]. For the same compound, the Potency [13] was active: 30.9 µM and active: 30.6 µM, the Potency [14] was active: 21.9 µM and active: 30.6 µM and the Potency [3] was active: 1.95 µM and active: 2.16 µM.

For CC(C)(c1ccccc1)c1ccc(O)c(C(C)(C)c2ccccc2)c1, the Potency [1] was active: 54.4 µM and active: 43.6 µM, the Potency [10] was inconclusive: 54.9 µM [activator, single point] and the Potency [11] was inconclusive: 68 µM [cytotoxic, single point] and active: 61.1 µM. For the same compound, the Potency [12] was inconclusive: 68 µM [cytotoxic, single point] and inconclusive: 77 µM [cytotoxic, single point], the Potency [16] was active: 60.6 µM and inconclusive: 68.6 µM [inhibitor, single point] and the Potency [8] was inconclusive: 60.6 µM [cytotoxic, partial curve]. The Potency [14] was active: 60.6 µM and active: 43.3 µM, the Potency [7] was inconclusive: 48.1 µM [cytotoxic, partial curve] and inconclusive: 68.6 µM [cytotoxic, single point] and the Potency [15] was inconclusive: 68 µM [cytotoxic, single point] and inconclusive: 68.6 µM [cytotoxic, single point].

With CN1CSC(=S)N(C)C1 the Potency [1] was inconclusive: 12.3 µM [cytotoxic, partial curve], the Potency [11] was active: 17.1 µM and inconclusive: 9.66 µM [cytotoxic, full curve] and the Potency [12] was inconclusive: 3.84 µM [cytotoxic, full curve] and inconclusive: 12.2 µM [cytotoxic, full curve]. The Potency [13] was active: 2.42 µM and active: 6.09 µM, the Potency [14] was active: 3.05 µM and active: 13.6 µM and the Potency [3] was active: 342 nM and active: 1.08 µM. For the same compound, the Potency [17] was inconclusive: 6.82 µM [rising, full curve] and inconclusive: 17.2 µM [rising, full curve].
